In article PMC6919601, “Identification of Plasmodium dipeptidyl aminopeptidase allosteric inhibitors by high throughput screening” (PLoS ONE, 2019):
Hit rate of the full screen: of about 110,000 compounds, about 230 (0.21%) showed an effect of 50% or more. The list shows a part of the results.

Target: DPAP1 (Plasmodium falciparum, UniProt Q8IIJ9)
Assay: primary screen, percent inhibition; read by cleavage of a fluorogenic dipeptide substrate; higher = more effect of the substance
Design: species or system P. falciparum D10 trophozoite lysates; single well
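Note: 30 min substrate incubation versus DMSO and 10 µM JCP410 controls.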

DPAP1, sequence (Q8IIJ9 whole entry, looked up): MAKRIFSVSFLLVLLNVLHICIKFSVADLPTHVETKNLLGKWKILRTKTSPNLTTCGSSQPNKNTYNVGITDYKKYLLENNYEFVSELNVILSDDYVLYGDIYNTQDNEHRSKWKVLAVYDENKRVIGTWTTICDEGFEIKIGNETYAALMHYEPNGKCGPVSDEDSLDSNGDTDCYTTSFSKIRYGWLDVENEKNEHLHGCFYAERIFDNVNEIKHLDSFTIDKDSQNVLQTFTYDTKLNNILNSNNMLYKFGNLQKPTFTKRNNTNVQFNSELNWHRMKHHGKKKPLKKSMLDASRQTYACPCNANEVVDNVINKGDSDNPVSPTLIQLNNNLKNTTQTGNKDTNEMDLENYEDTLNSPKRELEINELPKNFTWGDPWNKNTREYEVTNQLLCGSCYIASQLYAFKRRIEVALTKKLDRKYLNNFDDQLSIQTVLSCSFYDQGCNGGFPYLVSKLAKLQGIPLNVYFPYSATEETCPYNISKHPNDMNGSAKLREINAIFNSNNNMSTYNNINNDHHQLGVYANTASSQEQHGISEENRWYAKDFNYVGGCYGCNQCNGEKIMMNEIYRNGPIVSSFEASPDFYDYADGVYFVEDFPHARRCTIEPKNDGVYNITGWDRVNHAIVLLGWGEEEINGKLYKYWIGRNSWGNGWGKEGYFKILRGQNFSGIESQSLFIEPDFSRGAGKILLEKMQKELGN

Compound | % Inhibition @ 10 uM
Nc1nonc1-c1nc2ccccc2n1CC(=O)N1CCCCC1 | -0.169%
COCCCN1C(=O)S/C(=C/c2c[nH]c3ccccc23)C1=O | 3.83%
O=C(c1ccccc1)N1N=C(c2ccc(Br)cc2)CC1c1ccco1 (centres unmarked) | 4.58%
Cc1cc(C)cc(NC(=O)c2ccccc2N)c1 | -4.5%
C=CCc1c(O)nc(SCc2ccccc2Cl)nc1O | -3.28%
CCn1c(SCC(=O)NCc2ccco2)nnc1-c1cccnc1 | -1.46%
COc1ccc(N2C(=O)CSC2c2ccccc2)cc1 (centres unmarked) | 2.74%
CCOC(=O)/C=C(\C)N1N=C2c3cc(OC)ccc3CCC2C1c1ccccc1 (centres unmarked) | 2%
CC1(C)CC(=O)C2=C(C1)OC(N)=C(C#N)C2c1ccc(Cl)c(Cl)c1 (centres unmarked) | 1.54%
Cc1cc(C)n(S(=O)(=O)c2cc(C(=O)O)c(Cl)cc2Cl)n1 | 3.72%
Brc1ccc(NCc2cccnc2)cc1 | 2.94%
CN(Cc1ccccc1)C(=O)COc1ccc2ccccc2c1 | 3.48%
COc1ccc(S(=O)(=O)c2c(C)cc(C)cc2C)cc1 | -0.591%
CC1CCc2c(C(=O)NCC(C)c3ccccc3)csc2C1 (centres unmarked) | 0.277%
CC1CCN(C(=O)c2cn(C3CCCCC3)c(=O)c3c2c2ccccc2n3C)CC1 | 3.48%
CC(=O)c1cccc(NC(=O)NC2CCCCC2)c1 | 2.99%
COc1ccc(C(=O)N2CCN(c3ccccc3OC)CC2)c(OC)c1 | 8.06%
O=C(NC(Cc1ccc(O)cc1)C(=O)O)c1ccco1 (centres unmarked) | 1.7%
CCN(CC)CCCOC(=O)c1ccc(O)cc1O | 1.7%
Cc1ccnc(NS(=O)(=O)c2ccc(NC(=O)c3sc4ccccc4c3Cl)cc2)n1 | 1.02%
COc1cccc(CNCc2ccc(OC)cc2OC)c1 | 4.3%
O=C(Nc1nc2ccccc2s1)c1cc2ccccc2c(=O)o1 | 3.94%
N#CCNC(=O)[C@H](CSCc1ccccc1)NC(=O)c1cnc2ccccc2c1 | -5.21%
COc1ccccc1NC(=O)C(Cc1ccc([N+](=O)[O-])cc1)N1C(=O)c2ccccc2C1=O (centres unmarked) | 2.55%
CCOc1ccccc1C1C2=C(O)CCCC2=Nc2nc(SCc3ccc(C(=O)O)cc3)nn21 (centres unmarked) | 3.2%
COc1cccc(C2CC(=O)NC(SCc3ccccc3)=C2C#N)c1 (centres unmarked) | -2.35%
NS(=O)(=O)c1ccc(CCNC(=O)c2ccc3c(c2)sc2nc(-c4ccc(F)cc4)cn23)cc1 | -0.901%
O=C(NCCN1CCOCC1)C12CC3CC(CC(C3)C1)C2 | -0.436%
CCOC(=O)c1c(C)[nH]c(C)c1S(=O)(=O)NCCC(C)N1CCOCC1 (centres unmarked) | 0.00978%
